# About 14,000 (4.5%) of roughly 310,000 compounds showed an effect of 50% or more. The effect is printed as a negative number. The list shows a part of the results.
# Target: human ether-à-go-go-related gene (hERG) potassium channel (human, UniProt Q12809)
# Test: primary screen, population patch clamp on CHO cells stably expressing hERG
# 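Also: peak tail current of the secondary pulse compared with the same well before compound.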
# human ether-à-go-go-related gene (hERG) potassium channel, sequence (Q12809 whole entry, looked up): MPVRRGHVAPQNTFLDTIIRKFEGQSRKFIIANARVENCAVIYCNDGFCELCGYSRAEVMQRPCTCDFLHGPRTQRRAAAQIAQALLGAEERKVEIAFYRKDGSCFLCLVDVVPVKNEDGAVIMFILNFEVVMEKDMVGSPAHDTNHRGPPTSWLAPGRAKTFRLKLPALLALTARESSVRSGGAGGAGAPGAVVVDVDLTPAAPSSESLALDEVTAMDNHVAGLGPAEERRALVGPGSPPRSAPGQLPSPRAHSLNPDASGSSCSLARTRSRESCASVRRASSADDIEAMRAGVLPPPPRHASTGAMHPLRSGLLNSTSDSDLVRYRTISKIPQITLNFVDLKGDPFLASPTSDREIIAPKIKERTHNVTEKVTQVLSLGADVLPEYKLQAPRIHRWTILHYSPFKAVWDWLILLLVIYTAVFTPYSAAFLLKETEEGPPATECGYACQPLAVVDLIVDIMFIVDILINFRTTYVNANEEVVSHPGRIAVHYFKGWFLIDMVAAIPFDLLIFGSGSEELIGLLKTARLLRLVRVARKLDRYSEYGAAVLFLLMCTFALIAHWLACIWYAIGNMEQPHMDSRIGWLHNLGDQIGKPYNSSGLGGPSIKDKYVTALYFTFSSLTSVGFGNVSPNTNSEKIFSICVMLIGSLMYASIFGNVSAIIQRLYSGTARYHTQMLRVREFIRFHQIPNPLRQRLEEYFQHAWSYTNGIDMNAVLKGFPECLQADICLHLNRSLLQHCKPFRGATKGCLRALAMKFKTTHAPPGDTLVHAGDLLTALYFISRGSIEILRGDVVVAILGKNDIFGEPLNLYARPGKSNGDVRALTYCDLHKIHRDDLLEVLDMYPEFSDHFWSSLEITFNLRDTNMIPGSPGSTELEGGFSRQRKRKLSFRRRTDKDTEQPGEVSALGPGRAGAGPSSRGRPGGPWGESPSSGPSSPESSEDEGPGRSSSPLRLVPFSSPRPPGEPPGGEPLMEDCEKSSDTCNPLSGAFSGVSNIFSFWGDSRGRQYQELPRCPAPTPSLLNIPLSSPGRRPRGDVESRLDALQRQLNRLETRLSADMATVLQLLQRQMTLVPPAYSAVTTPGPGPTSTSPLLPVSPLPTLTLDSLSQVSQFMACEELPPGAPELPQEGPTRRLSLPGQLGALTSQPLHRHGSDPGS
row,Structure (SMILES),"hERG current change (%, negative = inhibition) at 10uM [%]"
1,CCOC(=O)C(=Cc1cn(C)c2ccc(S(=O)(=O)N(C)C)cc12)C(=O)OCC,8.8
2,Cc1ccc(S(=O)(=O)Nc2c(O)ccc3ccccc23)cc1,-0.72
3,O=C(N/N=C/c1c(Nc2cccc(C(F)(F)F)c2)nc2ccccn2c1=O)c1ccccc1[N+](=O)[O-],8.72
4,C=CCOc1c(Br)cc(CNn2c(C)n[nH]c2=S)cc1OCC,12.1
5,CCOc1ccc(CCNC(=O)CCc2nc3ccccc3[nH]2)cc1OCC,-1.68
6,CCOc1ccccc1C1CC(=O)Nc2cc(C)c(C)cc21 (stereo not shown),-7.74
7,CCCNC(=S)NCc1ccc(Cl)cc1,-1.64
8,COCCn1c(=O)[nH]c2cc(C(=O)Nc3nnc(C)s3)ccc21,6.11
9,Cc1cc2sc(NC(=O)c3ccco3)nc2cc1Cl,19.6
10,Cc1cc(OC(=O)c2cc(Cl)nc3ccccc23)ccc1Cl,10.7
11,Br.COc1ccc(-c2nc3n(c2Br)CCC3)cc1,-2.71
12,Cc1ccc(Cl)cc1NC(=S)N(Cc1cccnc1)Cc1ccccc1Cl,2.23
13,O=C1C(NS(=O)(=O)c2cccs2)=C(N2CCOCC2)C(=O)c2ccccc21,-40.8
14,Cc1ccc(S(=O)(=O)N(CC(=O)N(C(C)C)C(C)C)C(=O)N2CCN(C)CC2)cc1,4.66
15,COc1ccc(CCNC(=O)CCc2cc(OC)c(OC)c(OC)c2)cc1OC,5.3
16,COc1ccc(NC(=O)c2cc(N3C(=O)C4C5CCC(C5)C4C3=O)ccc2Cl)c(OC)c1 (stereo not shown),7.7
17,O=C(COC(=O)c1cccc([N+](=O)[O-])c1)c1ccc(OCc2ccccc2)cc1,27.6
18,C=CCOc1ccc(C2C(C(=O)c3ccc(C)o3)=C(O)C(=O)N2Cc2cccnc2)cc1 (stereo not shown),15.9
19,Cc1cccc(NC(=O)c2ccc3c(c2)C(=O)N(c2ccccn2)C3=O)c1C,12.9
20,S=C(NCC1CCCO1)Nc1ccccc1Cl (stereo not shown),5.02
21,C[C@@H]1CC=C[C@H]2[C@H]1C(=O)N(Cc1ccccc1)[C@H]2c1ccc(-c2ccc(N(C)C)cc2)cc1F,4.02
22,CCCCNc1c(N)n(CCCC)c(=O)[nH]c1=O,-19.2

row,Structure (SMILES),"hERG current change (%, negative = inhibition) at 10uM [%]"
1,Cc1cc(C)c2c(=O)[nH]c(SCC(=O)c3ccc(C)c(C)c3)nc2n1,6.59
2,COc1ccc(/C=C/C(=O)Nc2cccc(S(=O)(=O)NC3=NCCCCC3)c2)cc1,-43
3,CCN(CC)CCCN1C=C2C(=O)C(C)(OC(=O)CCC(=O)OC)C(=O)C(Br)=C2C=C1c1ccc(OC)cc1 (stereo not shown),-10.6
4,CC(C)n1c(SCC(=O)Nc2nncs2)nnc1C1CC1,-2.18
5,O=C(c1cccc(N2CCCC2=O)c1)N1CCN(c2cccc(Cl)c2)CC1,-25.6
6,COc1ccc(C)cc1Nc1n[n+](-c2ccccc2)c(-c2ccc(NC(C)=O)cc2)s1.[Cl-],12.8
7,COc1ccc(/C=C/C(=O)O)cc1S(=O)(=O)NCC1CCCO1 (stereo not shown),14.1
8,CCCc1nnc(SCc2ccc(OCC)cc2)n1N,10.7
9,COc1ccc(Cl)cc1S(=O)(=O)N(C)CC(=O)NCCCn1ccnc1,10.2
10,Cc1ccc(S(=O)(=O)NC(C)(C)CN2CCc3ccccc3C2)cc1,-34.1
11,Cc1nnc(SCCn2c(N(C)Cc3ccccc3)nc3c2c(=O)n(C)c(=O)n3C)s1,-26.6
12,O=C(C1CCN(c2ccc(N3CCOCC3)nn2)CC1)N1CCN(c2ccc(F)cc2)CC1,-47.4
13,Cc1nc2ccccc2nc1OCc1cccc([N+](=O)[O-])c1,11.7
14,COc1ccc(OC)c(NC(=O)CN2CCC(C(=O)c3ccc(C)cc3)CC2)c1,-17.7
15,O=C(Nc1ccc(Cl)cn1)c1ccc2ccccc2n1,12
16,Cn1c(-c2cc(Br)ccc2O)n[nH]c1=S,16.2
17,COc1ccc(C(=O)NCC(c2ccco2)N2CCOCC2)cc1OC (stereo not shown),24.9
18,CN(C(=O)COC(=O)CSc1ccc(C(N)=O)cc1[N+](=O)[O-])C1CCS(=O)(=O)C1 (stereo not shown),-11.4
19,CCn1cc(S(=O)(=O)N2CCCC2)cn1,8.1
20,C[C@H](NC(=O)OC(C)(C)C)C(=O)NCC1CCC(C(=O)N[C@@H](Cc2ccccc2)C(=O)O)CC1 (stereo partly shown),13.9
21,CC1CCc2c(sc(NC(=O)Cn3nc(C(=O)O)c4ccccc4c3=O)c2C#N)C1 (stereo not shown),4.25

# Source: article PMC4336329 (PLoS ONE, 2015)
